Consider 61 compounds from the supplement of paper PMC9446081.

The structures appear in SMILES notation. The whole screen tested about 39,000 compounds, of which about 220 (0.56%) showed activity. Some of the results follow.
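Also: static incubation at 37 °C against the wild-type strain, values averaged over two biological replicates.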

The test system of the assay is Escherichia coli K-12 BW25113. Briefly: relative growth (OD600 normalised to plate interquartile mean) (fraction); higher = less growth inhibition, active = 0.2 or less. The conditions noted are these: 50 µM; LB; incubation time: overnight (16-24 h).
As to `Cc1noc(C)c1S(=O)(=O)Nc1ccc2c(c1)C(=O)N([C@H](C)CO)C[C@@H](C)[C@H](CN(C)C(=O)Nc1ccc(F)cc1)OCCCC[C@H](C)O2`, the relative growth is inactive: 0.991.
In the case of `C[C@@H]1CN([C@H](C)CO)C(=O)c2cccc(NC(=O)C3CC3)c2O[C@@H]1CN(C)C(=O)NC1CCCCC1`, the relative growth is inactive: 1.
In the case of `COc1ccc(S(=O)(=O)N(C)C[C@@H]2OCCCC[C@H](C)Oc3ccc(NC(=O)C4CCCCC4)cc3C(=O)N([C@@H](C)CO)C[C@H]2C)cc1`, the relative growth was inactive: 1.04.
The value for `C[C@@H]1CCCCO[C@@H](CN(C)Cc2ccc(Cl)c(Cl)c2)[C@@H](C)CN([C@@H](C)CO)C(=O)c2cc(NC(=O)Nc3ccc(C(F)(F)F)cc3)ccc2O1` was inactive: 1.03.
`C[C@H](CO)N1C[C@H](C)[C@H](CN(C)C(=O)Nc2cccc3ccccc23)OCCCC[C@H](C)Oc2ccc(NC(=O)c3ccccc3)cc2C1=O`: the relative growth is inactive: 1.
The value for `C[C@@H]1CN([C@H](C)CO)S(=O)(=O)c2ccc(C#Cc3cccc(F)c3)cc2O[C@H]1CN(C)S(=O)(=O)c1cn(C)cn1` was inactive: 1.01; that for `C[C@H]1CN([C@@H](C)CO)C(=O)c2cc(C3=CCCCC3)cnc2O[C@H]1CN(C)S(=O)(=O)c1cn(C)cn1` was inactive: 1.01.
In the case of `CCS(=O)(=O)N1C[C@]2(CN(C2)S(=O)(=O)c2cn(cn2)C)c2c([nH]c3cc(ccc23)OC)[C@H]1CO` it was inactive: 1.01; in that of `CC1=C(/C=C/C(C)=C/C=C/C(C)=C/CO)C(C)(C)CCC1`, inactive: 0.992; in that of `C[C@H](CO)N1C[C@H](C)[C@H](CN(C)S(=O)(=O)c2cccs2)Oc2ccc(NC(=O)Cc3ccccc3)cc2CC1=O`, inactive: 1.01.
On to `COc1cccc(S(=O)(=O)N(C)C[C@@H]2Oc3ncc(C#CCN(C)C)cc3C(=O)N([C@H](C)CO)C[C@H]2C)c1`, for which the relative growth is inactive: 0.971.
As to `CC(C)NC(=O)N(C)C[C@@H]1Oc2ccc(NS(=O)(=O)c3ccccc3)cc2C(=O)N([C@H](C)CO)C[C@@H]1C`, the relative growth is inactive: 0.873.
In the case of `C[C@@H]1CN([C@H](C)CO)C(=O)Cc2cc(NS(=O)(=O)c3cn(C)cn3)ccc2O[C@H]1CN(C)C(=O)Nc1ccccc1`, the relative growth was inactive: 1.01.
On to `C[C@@H]1CCCCO[C@H](CN(C)Cc2ccc3c(c2)OCO3)[C@@H](C)CN([C@H](C)CO)C(=O)c2cc(NC(=O)CCC(F)(F)F)ccc2O1`, for which the relative growth is inactive: 1.
As for `CN1CCN(C(=O)C[C@@H]2CC[C@@H](NC(=O)c3ccc4c(c3)OCO4)[C@@H](CO)O2)CC1`, the relative growth was inactive: 0.966.
For `COc1ccc(S(=O)(=O)N(C)C[C@@H]2Oc3c(NS(=O)(=O)c4cccs4)cccc3C(=O)N([C@@H](C)CO)C[C@@H]2C)cc1`, the relative growth was inactive: 1.04.
On to `CN(C)c1ccc(C(=C2C=CC(=[N+](C)C)C=C2)c2ccc(N(C)C)cc2)cc1.[Cl-]`, for which the relative growth was inactive: 1.03.
Regarding `CC(C)NC(=O)N(C)C[C@H]1Oc2ccc(NS(=O)(=O)c3cn(C)cn3)cc2CC(=O)N([C@@H](C)CO)C[C@H]1C`, the relative growth is inactive: 0.983.
The value for `C[C@H]1CN([C@@H](C)CO)S(=O)(=O)c2ccc(-c3ccccc3F)cc2O[C@H]1CN(C)S(C)(=O)=O` was inactive: 0.999; that for `C[C@H](C[C@H](N)C(=O)O)C(=O)O` was inactive: 0.987.
The value for `Cc1noc(C)c1NC(=O)N(C)C[C@@H]1OCCCC[C@H](C)Oc2ccc(NC(=O)Nc3ccccc3)cc2C(=O)N([C@H](C)CO)C[C@@H]1C` was inactive: 0.988; that for `CN(C)c1ccc(O)c2c1C[C@@H]1C[C@@H]3[C@@H](N(C)C)C(=O)C(C(N)=O)=C(O)[C@]3(O)C(=O)[C@H]1C2=O` was active: 0.0589.
With `C[C@@H]1CN([C@@H](C)CO)C(=O)c2cc(NC(=O)Nc3cccc4ccccc34)ccc2O[C@@H]1CN(C)Cc1ccc2c(c1)OCO2`, the relative growth was inactive: 1.01.
The value for `C[C@H]1CN([C@@H](C)CO)C(=O)c2cc(NC(=O)Nc3cccc4ccccc34)ccc2O[C@H]1CN(C)C(=O)Nc1ccc2c(c1)OCO2` was inactive: 1.02; that for `C[C@H](CO)N1C[C@H](C)[C@H](CN(C)C(=O)c2cnccn2)Oc2ncc(C#CCC3CCCC3)cc2C1=O` was inactive: 1.03; that for `O=C(O)CCN1C(=O)c2ccncc2C1=O` was inactive: 0.998.
For `O=C(C[C@@H]1CC[C@H]2[C@@H](COC[C@H](O)CN2S(=O)(=O)c2ccccc2F)O1)NCc1ccccc1Cl`, the relative growth is inactive: 0.991.
Turning to `CN1C(=O)c2cc(NC(=O)Cc3cccs3)ccc2OC[C@@H]2O[C@@H](CC(=O)NCCCN3CCOCC3)CC[C@H]21`, the relative growth is inactive: 0.981.
Consider `Cn1c(C(=O)N[C@H](CO)Cc2c[nH]c3ccccc23)cc(=O)n(C)c1=O`, for which the relative growth was inactive: 1.03.
With `O=S(=O)(O)c1cc(O)ccc1O`, the relative growth was inactive: 0.943.
As to `C[C@@H]1CN([C@@H](C)CO)C(=O)c2cccc(NC(=O)c3nc4ccccc4s3)c2O[C@@H]1CN(C)Cc1ccc(Oc2ccccc2)cc1`, the relative growth was inactive: 1.04.
In the case of `O=C(Nc1ccccc1)N1c2ccccc2CCc2ccccc21` it was inactive: 1.03; in that of `C[C@@H]1CN([C@H](C)CO)C(=O)c2cc(NC(=O)NC3CCCCC3)ccc2O[C@@H](C)CCCCO[C@@H]1CN(C)S(=O)(=O)c1ccc(F)cc1`, inactive: 1.01; in that of `C[C@@H]1CN([C@@H](C)CO)C(=O)c2cc(NC(=O)CCN3CCOCC3)ccc2O[C@H]1CN(C)Cc1ccccc1`, inactive: 0.995.
As for `C[C@@H]1CCCCO[C@@H](CN(C)C(=O)Nc2ccc3c(c2)OCO3)[C@H](C)CN([C@@H](C)CO)C(=O)c2cc(NC(=O)C3CCCCC3)ccc2O1`, the relative growth is inactive: 1.03.
Regarding `CN(C)S(=O)(=O)c1ccc2c(c1)CCN2`, the relative growth is inactive: 0.975.
As to `CC(C)CC#Cc1ccc2c(c1)O[C@H](CN(C)C(=O)c1ccccn1)[C@H](C)CN([C@H](C)CO)S2(=O)=O`, the relative growth was inactive: 0.972.
For the compound `Cc1noc(C)c1S(=O)(=O)N(C)C[C@@H]1OCCCC[C@@H](C)Oc2ccc(NS(C)(=O)=O)cc2C(=O)N([C@@H](C)CO)C[C@@H]1C`, the relative growth is inactive: 0.979.
For the compound `C[C@H]1CN([C@@H](C)CO)C(=O)c2cccc(NS(=O)(=O)c3ccc(F)cc3)c2O[C@H]1CN(C)Cc1ccc(Oc2ccccc2)cc1`, the relative growth was inactive: 1.03.
Take `C[C@@H]1CCCCO[C@H](CN(C)Cc2ccncc2)[C@H](C)CN([C@@H](C)CO)C(=O)c2cc(NC(=O)NC3CCCCC3)ccc2O1`: the relative growth was inactive: 1.
In the case of `C[C@@H]1CCCCO[C@@H](CN(C)C(=O)Nc2ccccc2)[C@H](C)CN([C@@H](C)CO)C(=O)c2cc(NC(=O)NC3CCCCC3)ccc2O1`, the relative growth was inactive: 1.02.
Regarding `CCC(C)C(=O)OC1CCC=C2C=CC(C)C(CCC3CC(O)CC(=O)O3)C21` (stereo unspecified), the relative growth is inactive: 1.15.
On to `Cc1noc(C)c1S(=O)(=O)Nc1ccc2c(c1)C(=O)N([C@@H](C)CO)C[C@@H](C)[C@@H](CN(C)C(=O)Nc1ccccc1)OCCCC[C@@H](C)O2`, for which the relative growth is inactive: 0.983.
For the compound `CCSc1nnc2c(=O)[nH]c(=O)[nH]c2n1`, the relative growth is inactive: 1.01.
Take `COc1ccc(S(=O)(=O)Nc2ccc3c(c2)CC(=O)N([C@H](C)CO)C[C@H](C)[C@@H](CN(C)Cc2ccc(Oc4ccccc4)cc2)O3)cc1`: the relative growth was inactive: 1.03.
The value for `C[C@@H]1CN([C@H](C)CO)C(=O)c2cccc(NC(=O)C3CC3)c2O[C@H]1CN(C)S(=O)(=O)c1ccc(F)cc1` was inactive: 0.995.
With `O=C(NO)c1ccc(C(=O)N/N=C/[C@@H](O)[C@H](O)[C@H](O)CO)cc1`, the relative growth is inactive: 1.01.
Take `C[C@H](CO)N1C[C@H](C)[C@@H](CN(C)Cc2ccc(Oc3ccccc3)cc2)Oc2c(NS(=O)(=O)c3cccs3)cccc2C1=O`: the relative growth is inactive: 0.983.
As for `OCC(O)C(O)C(O)C(O)C(O)CO` (stereo unspecified), the relative growth is inactive: 1.06.
Turning to `O=S(=O)(NCC[C@H]1CC[C@H](NS(=O)(=O)c2ccccc2Cl)[C@@H](CO)O1)c1ccc(Cl)cc1`, the relative growth is inactive: 1.02.
Turning to `O=C(CS(=O)(=O)c1cccc2nsnc12)N1CC(=O)N(CCc2ccccc2)C(=O)C1`, the relative growth was inactive: 1.
The value for `C[C@@H]1CCCCO[C@H](CN(C)C(=O)Nc2ccccc2)[C@@H](C)CN([C@H](C)CO)C(=O)c2cc(NS(=O)(=O)c3ccccc3)ccc2O1` was inactive: 1.04; that for `C=C(C(=O)O)[C@@H](CCCCCCOC(=O)C(=O)OCCCCCC[C@@H](C(=C)C(=O)O)C(=O)O)C(=O)O` was inactive: 1.02; that for `C[C@H]1CCCCO[C@H](CN(C)C(=O)Nc2cccc3ccccc23)[C@@H](C)CN([C@@H](C)CO)C(=O)c2cc(N(C)C)ccc2O1` was inactive: 0.996.
In the case of `N#C[C@@H]1N[C@H](CO)[C@H]1c1ccccc1` it was inactive: 0.964.
The value for `C[C@@H]1CN([C@H](C)CO)C(=O)c2cc(NC(=O)CCCN(C)C)ccc2O[C@@H]1CN(C)C(=O)Nc1ccc2c(c1)OCO2` was inactive: 0.993; that for `CCCCCCOC(=O)N=C(N)c1ccc(NCc2nc3cc(C(=O)N(CCC(=O)OCC)c4ccccn4)ccc3n2C)cc1.CS(=O)(=O)O` was inactive: 1.09; that for `CO[C@H]1CN(C)C(=O)c2ccc(NC(=O)Nc3cccc(Cl)c3)cc2OC[C@@H](C)N(C(=O)Nc2c(C)noc2C)C[C@@H]1C` was inactive: 0.972.
For `C[C@@H]1CCCCO[C@H](CN(C)S(=O)(=O)c2cccs2)[C@@H](C)CN([C@@H](C)CO)C(=O)c2cc(NS(C)(=O)=O)ccc2O1`, the relative growth was inactive: 0.891.
For `CN1CCN(C(=O)C[C@H]2CC[C@H]3[C@@H](COC[C@@H](O)CN3C(=O)Nc3cc(Cl)cc(Cl)c3)O2)CC1`, the relative growth was inactive: 0.957.
Take `Cc1noc(C)c1S(=O)(=O)N(C)C[C@@H]1Oc2ccc(NC(=O)NC3CCCCC3)cc2CC(=O)N([C@H](C)CO)C[C@@H]1C`: the relative growth was inactive: 1.01.
